Experimental findings from the supplement of paper PMC9174493 are described below.

The other results are listed elsewhere or left out. Single values of this set are uncertain. Values with irradiation are relative to irradiated vehicle.
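Also: viability correction based on the alamar blue assay, with concentrations leaving 10% survival or less dropped.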

The assay relates to A549-Dual. The assay is described as follows: NF-kB reporter (SEAP) activity, viability-corrected, relative to vehicle (fold change vs vehicle); higher = more activation of STING-IRF / NF-kB immune response reporter. The following applies: 10 µM; irradiation: 8 Gy/4 fr.
For `CC(C)(C)C(=O)Oc1ccc(S(=O)(=O)Nc2ccccc2C(=O)NCC(=O)[O-])cc1.O.O.O.O.[Na+]` [Sivelestat sodium tetrahydrate], the NF-kB reporter worked out at 1.04. The value for `COc1cccc(OC)c1C(=O)OCc1cc(O)ccc1OC1OC(CO)C(O)C(O)C1O` (stereo not given) [Curculigoside] was 1.35; that for `CC(C)(C)NCC(O)COc1ccccc1C1CCCC1.CC(C)(C)NCC(O)COc1ccccc1C1CCCC1.O=S(=O)(O)O` (stereo not given) [Penbutolol Sulfate] was 0.676. With `Nc1cc[nH]c(=O)n1` [Cytosine], the NF-kB reporter was 0.845. Next, `O=C(O)[C@@H]1C[C@@H](O)CN1` [L-Hydroxyproline]: 1.36; `COc1ccc(CC(C)NCC(O)c2ccc(O)c(NC=O)c2)cc1.O=C(O)C(O)C(O)C(=O)O` (stereo not given) [Arformoterol Tartrate]: 0.977.

`COc1ccc(NC(=O)c2ccc(C(=N)N(C)C)cc2)c(C(=O)Nc2ccc(Cl)cn2)c1.O=C(O)/C=C\C(=O)O` [Betrixaban maleate] showed an NF-kB reporter of 1.19. Next, `COc1ccc2[nH]cc(CCNC(C)=O)c2c1` [Melatonin]: 0.874; `COC(=O)Nc1nc2ccc(Sc3ccccc3)cc2[nH]1` [Fenbendazole]: 0.79; `CSc1ccc2c(c1)N(CCC1CCCCN1C)c1ccccc1S2.Cl` (stereo not given) [Thioridazine hydrochloride]: 1.44. In turn, `O=C(c1ccc(F)cc1)C1CCN(CCn2c(=O)[nH]c3ccccc3c2=O)CC1` [Ketanserin] had an NF-kB reporter of 1.07. Next, `Cc1c(-c2ccccc2)oc2c(C(=O)OCCN3CCCCC3)cccc2c1=O.Cl` [Flavoxate HCl]: 1. Next, `Nc1nc(=O)n(C2CSC(CO)O2)cc1F` (stereo not given) [Emtricitabine]: 0.543; `COCC1CC(c2ncc(-c3ccc4c(c3)COc3cc5c(ccc6[nH]c(C7CCC(C)N7C(=O)C(NC(=O)OC)C(C)C)nc65)cc3-4)[nH]2)N(C(=O)C(NC(=O)OC)c2ccccc2)C1` (stereo not given) [Velpatasvir]: 0.812.

In turn, `NC(Cc1cc(I)c(Oc2ccc(O)c(I)c2)c(I)c1)C(=O)O` (stereo not given) [Triiodothyronine] yielded an NF-kB reporter of 1.18. The value for `Cl.NCCCC[C@H](N)C(=O)O` [L-Lysine hydrochloride] was 0.804.

`COC(=O)C1=C(C)NC(C)=C(C(=O)OCC(C)C)C1c1ccccc1[N+](=O)[O-]` (stereo not given) [Nisoldipine] displayed an NF-kB reporter of 0.545. In the case of `CC(C)(C)NC(=O)NC(C(=O)N1CC2C(C1C(=O)NC(CC1CCC1)C(=O)C(N)=O)C2(C)C)C(C)(C)C` (stereo not given) [Boceprevir], the NF-kB reporter came out at 0.685. Next, `O=c1n(CCCN2CCN(c3cccc(Cl)c3)CC2)nc2ccccn12` [Trazodone]: 0.922; `CNC1C(O)C(OC2C(N)CC(N)C(OC3OC(CN)=CCC3N)C2O)OCC1(C)O.CNC1C(O)C(OC2C(N)CC(N)C(OC3OC(CN)=CCC3N)C2O)OCC1(C)O.O=S(=O)(O)O.O=S(=O)(O)O.O=S(=O)(O)O.O=S(=O)(O)O.O=S(=O)(O)O` (stereo not given) [Sisomicin sulfate]: 0.827; `Clc1ccc(C(Cn2ccnc2)OCc2ccsc2Cl)c(Cl)c1` (stereo not given) [Tioconazole]: 0.32.

The compound `COc1ccc(-c2coc3cc(O)ccc3c2=O)cc1` [Formononetin] yielded an NF-kB reporter of 0.487. Next, `Cl.N=C(N)N` [Guanidine HCl]: 0.922. Next, `N#C/C(=C1/SCC(c2ccc(Cl)cc2Cl)S1)n1ccnc1` (stereo not given) [Luliconazole]: 0.819; `CC1CCOC2Cn3cc(C(=O)NCc4ccc(F)cc4F)c(=O)c([O][Na])c3C(=O)N12` (stereo not given) [Dolutegravir Sodium]: 0.626.

Compound `CCN(CC)C(=O)C1(c2ccccc2)CC1CN.Cl` (stereo not given) [Levomilnacipran Hydrochloride] returned an NF-kB reporter of 0.893.

The compound `CC/C=C\C/C=C\C/C=C\CCCCCCCC(=O)OC` [Methyl linolenate] came in with an NF-kB reporter of 1. Next, `CC1(OC(=O)/C=C/c2ccccc2)CC(O)C2(O)C=COC(OC3OC(CO)C(O)C(O)C3O)C12` (stereo not given) [Harpagoside]: 0.85; `CCCCCN(C)CCC(O)(P(=O)(O)O)P(=O)(O)O.O.[NaH]` [Ibandronate sodium]: 0.905; `CC(C)=CCCC(C)(OC1OC(COC2OC(CO)C(O)C(O)C2O)C(O)C(O)C1O)C1CCC2(C)C1C(O)CC1C3(C)CCC(OC4OC(CO)C(O)C(O)C4OC4OC(CO)C(O)C(O)C4O)C(C)(C)C3CCC12C` (stereo not given) [Ginsenoside Rb1]: 0.649.

Regarding `Nc1ncnc2c1ncn2C1OC(CO)C(O)C1O` (stereo not given) [Adenosine], the NF-kB reporter worked out at 0.953.

For `CN(C)CCC=C1c2ccccc2C(C)(C)c2ccccc21.Cl` [Melitracen hydrochloride], the NF-kB reporter was 0.415. The value for `c1cnc(N2CCN(Cc3ccc4c(c3)OCO4)CC2)nc1` [Piribedil] was 0.462; that for `CN(CCOc1ccc(NS(C)(=O)=O)cc1)CCc1ccc(NS(C)(=O)=O)cc1` [Dofetilide] was 0.761; that for `CCC1OC(=O)C(C)C(OC2CC(C)(OC)C(O)C(C)O2)C(C)C(OC2OC(C)CC(N(C)C)C2O)C(C)(O)CC(C)/C(=N/OCOCCOC)C(C)C(O)C1(C)O` (stereo not given) [Roxithromycin] was 0.774. The value for `C#CC1(O)CCC2C3CCC4=CC(=O)CCC4C3CCC21C` (stereo not given) [Norethindrone] was 0.814; that for `CCCCCCCCOC(=O)c1cc(O)c(O)c(O)c1` [Octyl gallate] was 0.524. On to `COc1ccc(-c2cc(=O)c3c(O)cc(O)cc3o2)cc1O` [Diosmetin], for which the NF-kB reporter was determined as 0.836.

In turn, `CCC(C)C(N)C1=NCC(C(=O)NC(CC(C)C)C(=O)NC(CCC(=O)[O-])C(=O)NC(C(=O)NC2CCCCNC(=O)C(CC(N)=O)NC(=O)C(CC(=O)[O-])NC(=O)C(Cc3c[nH]cn3)NC(=O)C(Cc3ccccc3)NC(=O)C(C(C)CC)NC(=O)C(CCCN)NC2=O)C(C)CC)S1.[Zn+2]` (stereo not given) [Bacitracin Zinc] yielded an NF-kB reporter of 0.797.

The compound `COc1ccc(NS(=O)(=O)c2ccc(N)cc2)nn1` [Sulfamethoxypyridazine] gave an NF-kB reporter of 0.827.
